Assay results from the supplement of paper PMC8728848.
The other results are listed elsewhere or left out.

Legend:
Assay in all cases: glycan array binding signal (z-score within array); higher = stronger binding
Settings in all cases: glycan notation: IUPAC condensed, linker removed; mutation: W10H
Neu5Ac(a2-8)Neu5Ac = target: Neu5Ac(a2-8)Neu5Ac
Procedure, shortened: (§1)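 Glycan array data came from 3228 arrays in the Consortium for Functional Glycomics database, and only arrays with an available protein sequence were kept. Glycan names were put into IUPAC-condensed notation, and columns mapping to the same glycan were averaged. The binding signal is a within-array Z-score, averaged across arrays of one protein sequence run at different concentrations or buffers and across linkers. A negative Z-score can be read as non-binding.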

[1] = target: Neu5Ac(a2-8)Neu5Ac(a2-3)Gal(b1-3)GalNAc(b1-4)[Neu5Ac(a2-3)]Gal(b1-4)Glc
Procedure, shortened: as §1

[2] = target: Neu5Ac(a2-8)Neu5Ac(a2-3)Gal(b1-3)GalNAc(b1-4)[Neu5Ac(a2-8)Neu5Ac(a2-3)]Gal(b1-4)Glc
Procedure, shortened: as §1

[3] = target: Neu5Ac(a2-8)Neu5Ac(a2-3)Gal(b1-4)Glc
Procedure, shortened: as §1

[4] = target: Neu5Ac(a2-8)Neu5Ac(a2-3)Gal(b1-4)GlcNAc
Procedure, shortened: as §1

[5] = target: Neu5Ac(a2-8)Neu5Ac(a2-3)[Gal(b1-3)GalNAc(b1-4)]Gal(b1-4)Glc
Procedure, shortened: as §1

[6] = target: Neu5Ac(a2-8)Neu5Ac(a2-3)[GalNAc(b1-4)]Gal(b1-4)Glc
Procedure, shortened: as §1

[7] = target: Neu5Ac(a2-8)Neu5Ac(a2-8)Neu5Ac
Procedure, shortened: as §1

[8] = target: Neu5Ac(a2-8)Neu5Ac(a2-8)Neu5Ac(a2-3)Gal(b1-4)Glc
Procedure, shortened: as §1

[9] = target: Neu5Ac(a2-8)Neu5Ac(a2-8)Neu5Ac(a2-3)[Gal(b1-3)GalNAc(b1-4)]Gal(b1-4)Glc
Procedure, shortened: as §1

[10] = target: Neu5Ac(a2-8)Neu5Ac(a2-8)Neu5Ac(a2-3)[GalNAc(b1-4)]Gal(b1-4)Glc
Procedure, shortened: as §1

[11] = target: Neu5Ac(a2-8)Neu5Ac(a2-8)Neu5Ac(a2-8)Neu5Ac(a2-3)[GalNAc(b1-4)]Gal(b1-4)Glc
Procedure, shortened: as §1

[12] = target: Neu5Ac(a2-8)Neu5Gc(a2-3)Gal(b1-4)GlcNAc
Procedure, shortened: as §1

[13] = target: Neu5Ac(b2-6)Gal(b1-4)GlcNAc
Procedure, shortened: as §1

Neu5Ac(b2-6)GalNAc = target: Neu5Ac(b2-6)GalNAc
Procedure, shortened: as §1

[14] = target: Neu5Ac9Ac(a2-3)Gal(b1-3)GlcNAc
Procedure, shortened: as §1

[15] = target: Neu5Ac9Ac(a2-3)Gal(b1-4)GlcNAc
Procedure, shortened: as §1

[16] = target: Neu5Ac9Ac(a2-6)Gal(b1-4)GlcNAc
Procedure, shortened: as §1

[17] = target: Neu5Gc(a2-3)Gal(b1-3)GlcNAc
Procedure, shortened: as §1

[18] = target: Neu5Gc(a2-3)Gal(b1-3)[Fuc(a1-4)]GlcNAc
Procedure, shortened: as §1

Neu5Gc(a2-3)Gal(b1-4)Glc = target: Neu5Gc(a2-3)Gal(b1-4)Glc
Procedure, shortened: as §1

[19] = target: Neu5Gc(a2-3)Gal(b1-4)GlcNAc
Procedure, shortened: as §1

[20] = target: Neu5Gc(a2-3)Gal(b1-4)GlcNAc(b1-3)Gal(b1-4)GlcNAc(b1-2)Man(a1-3)[Neu5Gc(a2-3)Gal(b1-4)GlcNAc(b1-3)Gal(b1-4)GlcNAc(b1-2)Man(a1-6)]Man(b1-4)GlcNAc(b1-4)GlcNAc
Procedure, shortened: as §1

[21] = target: Neu5Gc(a2-3)Gal(b1-4)[Fuc(a1-3)]GlcNAc
Procedure, shortened: as §1

[22] = target: Neu5Gc(a2-6)Gal(b1-4)GlcNAc
Procedure, shortened: as §1

Neu5Gc(a2-6)GalNAc = target: Neu5Gc(a2-6)GalNAc
Procedure, shortened: as §1

[23] = target: Neu5Gc(a2-8)Neu5Ac(a2-3)Gal(b1-4)GlcNAc
Procedure, shortened: as §1

[24] = target: Neu5Gc(a2-8)Neu5Gc(a2-3)Gal(b1-4)GlcNAc
Procedure, shortened: as §1

[25] = target: Neu5Gc(a2-8)Neu5Gc(a2-3)Gal(b1-4)GlcNAc(b1-3)Gal(b1-4)GlcNAc
Procedure, shortened: as §1

[26] = target: Neu5Gc(a2-8)Neu5Gc(a2-6)Gal(b1-4)GlcNAc
Procedure, shortened: as §1

[27] = target: Neu5Gc(b2-6)Gal(b1-4)GlcNAc
Procedure, shortened: as §1

B1: Banana lectin (Musa acuminata) (protein)
chain: MNGAIKVGAHGGNGGSAFDMGPAYRIISVKIFSGDVVDGVDVTFTYYGKTETRHYGGSGGTPHEIVLQEGEYLVGMAGEVANYHGAVVLGKLGFSTNKKAYGPFGNTGGTPFSLPIAAGKISGFFGRGGKFLDAIGVYLEPLEHHHHHH
Neu5Ac(a2-8)Neu5Ac
  glycan array binding signal (z-score): -0.183
[1]
  glycan array binding signal (z-score): -0.127
[2]
  glycan array binding signal (z-score): -0.2
[3]
  glycan array binding signal (z-score): -0.19
[4]
  glycan array binding signal (z-score): -0.203
[5]
  glycan array binding signal (z-score): -0.181
[6]
  glycan array binding signal (z-score): -0.146
[7]
  glycan array binding signal (z-score): -0.169
[8]
  glycan array binding signal (z-score): -0.159
[9]
  glycan array binding signal (z-score): -0.14
[10]
  glycan array binding signal (z-score): -0.113
[11]
  glycan array binding signal (z-score): -0.153
[12]
  glycan array binding signal (z-score): -0.16
[13]
  glycan array binding signal (z-score): -0.188
Neu5Ac(b2-6)GalNAc
  glycan array binding signal (z-score): -0.156
[14]
  glycan array binding signal (z-score): -0.187
[15]
  glycan array binding signal (z-score): -0.184
[16]
  glycan array binding signal (z-score): -0.181
[17]
  glycan array binding signal (z-score): -0.168
[18]
  glycan array binding signal (z-score): -0.172
Neu5Gc(a2-3)Gal(b1-4)Glc
  glycan array binding signal (z-score): -0.171
[19]
  glycan array binding signal (z-score): -0.193
[20]
  glycan array binding signal (z-score): -0.162
[21]
  glycan array binding signal (z-score): -0.178
[22]
  glycan array binding signal (z-score): -0.12
Neu5Gc(a2-6)GalNAc
  glycan array binding signal (z-score): -0.166
[23]
  glycan array binding signal (z-score): -0.194
[24]
  glycan array binding signal (z-score): -0.149
[25]
  glycan array binding signal (z-score): -0.163
[26]
  glycan array binding signal (z-score): -0.162
[27]
  glycan array binding signal (z-score): -0.185
